Results published in the supplement of paper PMC10681739.
The full ranking holds about 2,700 sequences; the median of “arbitrary fluorescence units” is about 4,100, and the highest 2% start at about 54,000. Some of the results follow.

biological target: T1, ETS1 (UniProt P14921); experiment: ETS1 binding intensity (PBM fluorescence) (arbitrary fluorescence units); higher = stronger binding; settings: ETS1 concentration 10 nM
T1 sequence: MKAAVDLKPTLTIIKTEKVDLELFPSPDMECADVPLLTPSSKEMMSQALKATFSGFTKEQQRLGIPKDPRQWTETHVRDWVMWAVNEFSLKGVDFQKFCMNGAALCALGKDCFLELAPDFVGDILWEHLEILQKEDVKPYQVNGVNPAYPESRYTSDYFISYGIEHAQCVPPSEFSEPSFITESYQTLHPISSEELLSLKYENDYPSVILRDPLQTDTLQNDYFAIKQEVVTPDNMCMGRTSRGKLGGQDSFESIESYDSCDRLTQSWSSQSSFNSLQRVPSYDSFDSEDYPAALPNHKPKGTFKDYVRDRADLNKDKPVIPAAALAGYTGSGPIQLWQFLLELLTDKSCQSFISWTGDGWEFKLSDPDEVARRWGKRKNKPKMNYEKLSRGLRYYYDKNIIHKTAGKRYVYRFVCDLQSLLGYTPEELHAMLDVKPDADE
Description: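 gcPBM on wild-type 36-bp genomic probes with two neighbouring ETS1 sites (4-24 bp apart). Recombinant human ETS1 (10 nM) was detected with anti-ETS1 antibody fluorescence. Values are medians over 3 replicate spots. The probes sit in constant array flanks that are not printed.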

| Sequence | ETS1 binding intensity |
| --- | --- |
| AAACACGGAAATAACTTTTTTCTAACTTCCCGTAGT | 1780 |
| CGAGCGGAAGCGCAGGCCTGGCCGTCAGTTCCGGAC | 4300 |
| CGAAACTTCCGGGGCTTCTTCGATTACTTCCGGTTC | 49200 |
| TCCCAGGCTCGGTGGAAGGCGGATGGCGGATGTCCG | 374 |
| GAAGGTATTTCCTGGCTCGTGAGTAGGAAATGTAAC | 11900 |
| TGCCCGGCTTCCGGGTGGCTGCGCGGAAGCGCGGTG | 20900 |
| CTGAAGCGGAAACACGTTTTTTCAAGTTCCTGTATT | 5930 |
| CACCTAGAGGAAACTCCAGGCACAGGAAGTGGTTCA | 2250 |
| TGCCTAGCTTCCTGCTTCTTGGCCTTCCTGCCACTC | 14700 |
| CCGCCCGCCGGAAGTGGCGGCCCGGAACTACTCCCA | 23700 |
| TTAGCGAGGAGGGCGGAACGGAAACGCTCAGGCCCT | 428 |
| CACGGTGATTTCCTGTAAACAACAGGAAATGTACAG | 22700 |
| TTTCTATCCTGCTGGCTGGAGGGTCCCGGAAGGGGA | 430 |
| TGGTGTTATTTCCTGTGTTAGACTTCCTACTTACTG | 24300 |
| GCCGATTTCCTTTTCATTACTGCCACTTCCTCTGCG | 16500 |
| GCTCGTCCCCATCCGGGACGCGTTTCCGCCGCCGCC | 7320 |
| ATGGACACCGGAACTCAGAGTCCTTCCTCCTCTGCC | 3140 |
| GAGACGGGACTTCCGGCTCCCGGGGAAGTCCCGCCC | 53500 |

| Sequence | ETS1 binding intensity |
| --- | --- |
| TGGTTGTACTTCCCTTGCTCTCAGGAAGCTCATTCA | 1840 |
| GGACACAGGAAGACACACACGCACAGGAAGAAAGCT | 1600 |
| TATAAAGGATGTGGGGTTGCAGAAACAGGAAATGAA | 1430 |
| ATGTCTGGGAAATGTAGTTTCTCAGCATCCGGTTAT | 2320 |
| GGGCTGCCCGGCCTTCCACTTCCGGCGCGGAAGTTG | 23400 |
| GCTGAGGCTTCAGGAAGCCACATCCTGGAGGGAGCT | 1830 |
| GCGCCTTCCGCTCCGCCCCTTCAGGCAGGAAGTGTC | 12800 |
| CCCAGGATGGGCTCCATGACGCTGGGCCGGAAGAAG | 248 |
| CACGCACATCATCCGGCACCATTTCCGTGCCCCGAA | 4750 |
| CGCCCGCGCCTCCGGAACAGGAAACCGAGGGAATTA | 2050 |
| AAGGAGCCTTCCTGTAAGTCTCTCTTCCTCCCTTTC | 2940 |
| TATATCACCACAGGAAGCACATCCTGTCAGGTTGTC | 13600 |
| CACCAACTTCCTGGGCTCAAGCAATCTTCCTGCATC | 19200 |
| CCTCCACTTCCTGGGTTCAAGTGATTTCCTGCCTCA | 20700 |
| GAGCCACTTCCTCCAGGAGCCAGGGCGGATGCAACC | 14400 |
| AGGCAGGAAGAGGAGGGGAGGGTCCCACATCCTTCC | 766 |
| CTTCGTGGTTTTCCTGGGAGCATTTCCTGAGCGCTA | 1360 |
